According to PubChem BioAssay AID1508624 (National Center for Advancing Translational Sciences (NCATS), 2021):
Among all 48,000 compounds or so, about 120 (0.25%) were called active. Roughly 4% stayed inconclusive and do not appear here. The call rests on the fitted dose curve; in most records, active means well fitted activation curve with a large enough effect; inconclusive means small, poorly fitted or top-dose-only effect, or another doubt; inactive means no such curve, though single readings can be large or run the other way. The entries are a selection whose mix differs from that of the whole data set. The source gives no active or inactive call for entries shown without one.

Test: Primary qHTS for Identification of Small Molecule Activators of Huntingtin-Antisense Promoter Activity; further: nearly all actives have a fitted effect of over 55% in size
Conditions: HEK293 HTT-AS promoter firefly luciferase reporter, 24 h; activity change, positive = activation: at 57.5 µM (top of the series), percent change from vehicle, -100% = no light
Outline: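 Firefly luciferase signal from promoter-reporter HEK293 cells was scaled between vehicle (0%) and zero RLU (-100%). Compounds were tested at final concentrations of up to 57.5 uM over 24 h at 37 degrees C. PTC124 at 50 uM final served as control inhibitor.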

**Q.** With `Cc1ccc(-c2nnc(Nc3cccc(Cl)c3)c3ccccc23)cc1S(=O)(=O)N1CCCCC1` as the compound, how does the activity change, positive = activation read?
**A.** -20.8%

**Q.** With `COC(=O)c1cc2oc3ccccc3c2n1Cc1nc(-c2ccc(Cl)cc2)oc1C` as the compound, how does the activity change, positive = activation read?
**A.** 2.41%

**Q.** With `COc1ccccc1-c1nc2c(c(SCC(=O)Nc3ccc(C)c(C)c3)n1)Cc1c(CO)cnc(C)c1O2` as the compound, how does the “activity change, positive = activation” value read?
**A.** inactive: -27.2%

**Q.** With `CCOc1ccc(CCNC(c2cccc(Cl)c2)c2nnc(-c3ccccc3)o2)cc1OCC` (stereo unspecified) as the compound, how does the activity change, positive = activation read?
**A.** -19.7%

**Q.** With `O=C(NCCc1ccc(Cl)cc1)c1cnc2sc(N3CCCCC3)nn2c1=O` as the compound, how does the activity change, positive = activation read?
**A.** -3.06%

**Q.** For `Cc1ccccc1NC(=O)c1c(C)oc2ccc(O)c(CN3CCC(C)CC3)c12`, which activity change, positive = activation is on record?
**A.** -15.9%

**Q.** For `COc1cccc2c1Oc1nc(-c3ccccc3)nc(SCC(=O)Nc3ccccc3)c1C2`, which “activity change, positive = activation” value is on record?
**A.** inactive: -23.3%

**Q.** With `Cc1nc2ccn(Cc3ccco3)c(=O)c2cc1C(=O)NCc1ccccc1F` as the compound, how does the activity change, positive = activation read?
**A.** -13.9%

**Q.** Which activity change, positive = activation does the source give for `O=C(NCc1ccccc1Cl)C1CCN(S(=O)(=O)Cc2ccccc2)CC1` here?
**A.** 1.43%

**Q.** For `COc1ccccc1CCN1COc2c(cc3c(C)c(C)c(=O)oc3c2C)C1`, which activity change, positive = activation is on record?
**A.** -9.7%

**Q.** With `CCc1ccc(NS(=O)(=O)c2ccc(-c3cc(C)no3)cc2)cc1` as the compound, how does the activity change, positive = activation read?
**A.** -26.8%

**Q.** For `N#CNC(=NCCCCCCOc1ccc(Cl)cc1)Nc1ccncc1`, which “activity change, positive = activation” value is on record?
**A.** inactive: -43.8%

**Q.** With `Cc1cc(Cl)ccc1NC(=O)Cc1ccc(NC(=O)N2CCCCc3ccccc32)cc1` as the compound, how does the “activity change, positive = activation” value read?
**A.** inactive: -3.06%

**Q.** For `CC(=O)N1CCCc2cc(S(=O)(=O)N3CCCC(C(=O)N4CCN(c5ccccc5)CC4)C3)ccc21` (stereo unspecified), which “activity change, positive = activation” value is on record?
**A.** inactive: -24.3%

**Q.** For `COc1ccc2c(c1)cc1c(=O)n(CC(=O)NC(C)CCc3ccccc3)nc(C)n12` (stereo unspecified), which activity change, positive = activation is on record?
**A.** -8.69%

**Q.** Which activity change, positive = activation does the source give for `Cc1ccc2oc(-c3ccc(Cl)c(NC(=O)Cc4ccccc4)c3)nc2c1` here?
**A.** 0.765%

**Q.** For `COc1ccc(C2(Nc3cccc(F)c3)C(=O)c3ccccc3C2=O)cc1`, which activity change, positive = activation is on record?
**A.** -9.33%

**Q.** For `Cc1nn(-c2ccc(N3CCCCC3)nn2)c(C)c1CCC(=O)Nc1ccc(F)cc1F`, which activity change, positive = activation is on record?
**A.** 16%

**Q.** For `CCCCN(CC)C(=O)c1nn(C)c2c1CSc1ccccc1-2`, which “activity change, positive = activation” value is on record?
**A.** inactive: -4.25%

**Q.** For `Cc1ccc(C)c(CN2C(=O)C(O)(c3c(C)[nH]c4ccccc34)c3ccccc32)c1` (stereo unspecified), which “activity change, positive = activation” value is on record?
**A.** inactive: -25.9%

**Q.** Which activity change, positive = activation does the source give for `CCOC(=O)c1cc(C)n(CC2CCC(C(=O)Nc3ccccc3OC)CC2)c1C` (stereo unspecified) here?
**A.** -5.18%

**Q.** Which activity change, positive = activation does the source give for `Clc1ccccc1-c1nnc(COc2ccccc2)o1` here?
**A.** 58.8%

**Q.** Which activity change, positive = activation does the source give for `O=C(C1CCN(S(=O)(=O)Cc2ccccc2)CC1)N1CCN(c2cccc(C(F)(F)F)c2)CC1` here?
**A.** -9.9%

**Q.** With `O=C(CSC1=Nc2ccccc2N=C(c2ccc(F)cc2)C1)Nc1ccccc1` as the compound, how does the “activity change, positive = activation” value read?
**A.** inactive: -28%

**Q.** With `Cc1nc2scc(C)n2c(=O)c1S(=O)(=O)NCCc1ccccc1` as the compound, how does the activity change, positive = activation read?
**A.** 2.32%

**Q.** Which activity change, positive = activation does the source give for `Cc1cc(Nc2ccc(C(=O)O)c(O)c2)n2ncnc2n1` here?
**A.** 9.1%

**Q.** Which activity change, positive = activation does the source give for `COc1cc(Cl)c(C)cc1NC(=O)c1cnn(-c2ccc(C)cc2)c1-n1cccc1` here?
**A.** 1.92%

**Q.** With `COc1cccc(C(=O)N2CCC(N3CCN(Cc4ccc(F)cc4)C(=O)C3=O)CC2)c1` as the compound, how does the activity change, positive = activation read?
**A.** 3.24%

**Q.** Which “activity change, positive = activation” value does the source give for `Cc1ccc(Cl)cc1NC(=O)c1cccc(NC(=O)N2CCSc3ncccc32)c1` here?
**A.** inactive: -32.8%

**Q.** Which activity change, positive = activation does the source give for `COc1ccc(S(=O)(=O)N(CCc2ccccc2)CC(=O)NCc2ccccc2)cc1OC` here?
**A.** -26.4%

**Q.** Which “activity change, positive = activation” value does the source give for `c1ccc(N2CCN(c3ncnc4[nH]ncc34)CC2)cc1` here?
**A.** inactive: -1.98%

**Q.** For `COC(=O)c1ccc(NC(=O)CC2C(=O)N(c3ccc(F)cc3)C(=O)N2Cc2ccc(OC)cc2)cc1` (stereo unspecified), which activity change, positive = activation is on record?
**A.** -10.6%

**Q.** Which activity change, positive = activation does the source give for `CCOC(=O)c1cc(C)n(CC2CCC(C(=O)Nc3ccc(OCC)cc3)CC2)c1C` (stereo unspecified) here?
**A.** -38.1%

**Q.** For `CCc1ccc(NC(=O)CC2C(=O)N(c3ccc(Cl)cc3)C(=O)N2Cc2cccs2)cc1` (stereo unspecified), which activity change, positive = activation is on record?
**A.** 1.81%

**Q.** With `COc1ccc(O)c(C2Nc3ccccc3-n3c(-c4ccccc4)c4c(=O)n(C)c(=O)n(C)c4c32)c1` (stereo unspecified) as the compound, how does the activity change, positive = activation read?
**A.** -21.7%

**Q.** With `COc1ccc(S(=O)(=O)Nc2cccc(-c3ccc(N4CCCCCC4)nn3)c2)cc1` as the compound, how does the activity change, positive = activation read?
**A.** 30.6%

**Q.** For `O=C(NCCSCc1ccccc1Cl)C1CCN(S(=O)(=O)Cc2ccccc2)CC1`, which activity change, positive = activation is on record?
**A.** -10.2%

**Q.** For `Cc1nn(-c2ccc(N3CCCC3)nn2)c(C)c1CCC(=O)NCc1ccccc1F`, which activity change, positive = activation is on record?
**A.** -6.83%

**Q.** Which activity change, positive = activation does the source give for `COc1ccc(CN2C(=O)N(c3ccc(F)cc3)C(=O)C2CC(=O)Nc2cc(OC)cc(OC)c2)cc1` (stereo unspecified) here?
**A.** -17.7%

**Q.** For `COc1ccc(-c2c3c(=O)n(C)c(=O)n(C)c3c3n2-c2ccccc2NC3c2ccc(O)cc2O)cc1` (stereo unspecified), which activity change, positive = activation is on record?
**A.** -12%

**Q.** Which activity change, positive = activation does the source give for `O=C(CSc1nc(-c2cccs2)nc2cc(=O)[nH]n12)Nc1cccc(C(F)(F)F)c1` here?
**A.** -11.6%

**Q.** For `COc1ccc(CCNC(c2ccc(F)cc2)c2nnc(-c3ccccc3Cl)o2)cc1OC` (stereo unspecified), which activity change, positive = activation is on record?
**A.** -25.9%

**Q.** Which activity change, positive = activation does the source give for `CCOC(=O)/C(C#N)=C/c1ccc(-c2ccc(Br)cc2)o1` here?
**A.** 18.3%

**Q.** Which activity change, positive = activation does the source give for `Cc1nn(-c2ccc(N3CCCCC3)nn2)c(C)c1CCC(=O)NCc1ccc(OC(C)C)cc1` here?
**A.** -35.4%

**Q.** For `CCc1ccc(CNCc2c(C(=O)O)c(C)n(Cc3c(F)cccc3Cl)c2C)cc1`, which “activity change, positive = activation” value is on record?
**A.** inactive: -17.6%

**Q.** Which activity change, positive = activation does the source give for `COc1ccc(CCNC(=O)Cn2nc(C)n3c(cc4cc(F)ccc43)c2=O)cc1OC` here?
**A.** -6.1%
